# Where “and” joins values, the source holds several entries; their conditions need not be identical. Identical values can stand only once. Out of some 390,000 compounds screened, about 4,000 (1%) were called active. This list was built around the results that the source calls inconclusive (neither active nor inactive); the mix of calls is not that of the screen. Calls come from the whole dose curve; as a rule, active = well fitted inhibition curve with a large enough effect; inconclusive = small, poorly fitted or top-dose-only effect; inactive = no such curve, though single readings can be large or run the other way. Potencies beside an inconclusive call are fits to weak or partial responses and may not hold up.
# Target: Thioredoxin reductase 1, cytoplasmic (Rattus norvegicus) (UniProt O89049)
# Test: qHTS Assay for Inhibitors of Mammalian Selenoprotein Thioredoxin Reductase 1 (TrxR1): qHTS; note: nearly all actives have a fitted effect of over 65% in size
# Conditions: recombinant rTrxR1, NADPH fluorescence consumption, selenite substrate; series mostly up to 114 µM
# How it was run: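 Rat TrxR1 (90 nM in the dispensed reagent) was pre-reduced with 400 uM NADPH for 5 min at room temperature, then incubated with compound for 15 min. After 400 uM selenite was added, NADPH fluorescence (Ex 340/Em 450 nm) was followed for 8 min.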
# Potency is the fitted concentration of half-maximal effect; tags give direction and shape of the fitted curve.
# UniProt O89049, sequence (O89049 whole entry, looked up): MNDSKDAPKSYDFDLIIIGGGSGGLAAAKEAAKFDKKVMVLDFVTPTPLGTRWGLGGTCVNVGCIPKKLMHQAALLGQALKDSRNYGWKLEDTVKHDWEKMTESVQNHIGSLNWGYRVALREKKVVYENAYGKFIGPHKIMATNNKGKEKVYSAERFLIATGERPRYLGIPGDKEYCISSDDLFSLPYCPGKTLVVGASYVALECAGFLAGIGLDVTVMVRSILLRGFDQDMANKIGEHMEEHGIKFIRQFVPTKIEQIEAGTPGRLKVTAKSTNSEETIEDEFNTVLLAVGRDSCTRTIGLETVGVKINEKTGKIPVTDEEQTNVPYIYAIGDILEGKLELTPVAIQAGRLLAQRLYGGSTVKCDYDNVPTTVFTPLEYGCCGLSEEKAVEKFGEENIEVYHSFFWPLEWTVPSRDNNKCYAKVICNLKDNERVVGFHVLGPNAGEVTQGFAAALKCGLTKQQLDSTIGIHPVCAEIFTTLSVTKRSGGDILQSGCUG
row,Compound,Potency
1,Cc1ccc(-c2nc3ccc(Cl)cc3c(=O)n2O)cc1,inactive
2,O=C(c1ccco1)N1CCN(c2ncnc3sc4c(c23)CCC4)CC1,"inconclusive: 31.6 µM [inhibitor, single point]"
3,O=C(c1ccco1)N1CCN(c2ccc([N+](=O)[O-])cn2)CC1,"inconclusive: 50.1 µM [inhibitor, partial curve]"
4,NC(=O)Cc1ccc(C(=O)CSc2nnc(-c3ccncc3)n2C2CC2)s1,"inconclusive: 39.8 µM [inhibitor, partial curve]"
5,N#Cc1c(NC(=O)/C=C/c2ccco2)sc2c1CCCC2,active: 39.8 µM
6,CC(NCC(O)COc1ccc(Br)cc1)c1ccccc1 (stereo not given),inactive
7,CCCCN(C)CCNC(=O)C1CCN(c2nc3ccc(CC)cc3s2)CC1,inactive
8,COc1ccc(OCC(=O)NNC(=S)NC(=O)c2ccc([N+](=O)[O-])cc2)cc1,"inconclusive: 7.94 µM [inhibitor, partial curve, poor fit]"
9,CC(=O)Nc1ccc(C(=O)CN2CCN(c3ccccc3)CC2)cc1,"inconclusive: 39.8 µM [inhibitor, partial curve]"
10,O=c1[nH]c(/C=C\c2ccc(O)cc2)nc(O)c1[N+](=O)[O-],"inconclusive: 25.1 µM [inhibitor, full curve]"
11,CC(=O)Nc1ccc(N/C=C/C(=O)c2ccc(C)o2)cc1,"inconclusive: 14.1 µM [inhibitor, full curve, poor fit]"
12,C=C1[C@@H](O)[C@H](CC(C)C)N(Cc2ccccc2Br)S1(=O)=O,active: 7.94 µM and active: 5.01 µM
13,Cc1occc1-c1nnc(SCc2cc(=O)n3cc(Br)ccc3n2)n1C,"inconclusive: 39.8 µM [inhibitor, single point]"
14,COc1ccc(OC)c(CNc2ncnc3onc(-c4ccc(Cl)cc4)c23)c1,inactive
15,CCOC(=O)CSc1nc2ccc(NC(=O)COc3ccccc3)cc2s1,inactive
16,O=C(c1ccc([N+](=O)[O-])o1)N1CCc2ccccc2C1,"inconclusive: 12.6 µM [inhibitor, full curve]"
17,COc1ccc(CCNC(=O)CCCn2ncn3c(cc4occc43)c2=O)c(OC)c1,"inconclusive: 89.1 µM [inhibitor, single point]"
18,NS(=O)(=O)c1ccc(NC(=S)Nc2ccc(Br)c(Cl)c2)cc1,"inconclusive: 22.4 µM [inhibitor, single point]"
19,N=c1c[n+](N2CCOCC2)[n-]o1,"inconclusive: 42.3 µM [inhibitor, partial curve, poor fit]"
20,Cc1nc(N)sc1C(=O)N1N=N1,"inconclusive: 15.8 µM [inhibitor, partial curve, poor fit]"
21,CN(C)c1ccc(/C=C/c2ccccn2)cc1,"inconclusive: 56.2 µM [inhibitor, partial curve, poor fit]"
22,O=C(O)/C=C/c1nc(-c2ccccc2)n2ccccc12,"inconclusive: 35.5 µM [inhibitor, partial curve, poor fit]"
23,O=C(Nc1ccc2c(c1)OCCO2)c1ccc2ccccc2n1,inactive

row,Compound,Potency
1,CN1CCN(CCCN2c3ccccc3Sc3ccc(Cl)cc32)CC1,"inconclusive: 18.9 µM [inhibitor, partial curve, poor fit]"
2,C/C(=C\c1ccccc1F)C1Nc2cccc3cccc(c23)N1,"inconclusive: 28.2 µM [inhibitor, single point]"
3,Cc1ccc(NC(=O)COC(=O)CCC(=O)c2cccs2)cc1,inactive
4,COc1ccc2cc3cc(C(=O)NCCN4CCN(Cc5ccccc5)CC4)oc3nc2c1,"inconclusive: 70.8 µM [inhibitor, single point]"
5,O=C(COC(=O)c1ncc(Cl)c(Cl)c1Cl)NNC(=O)c1ccccc1,"inconclusive: 89.1 µM [inhibitor, partial curve, poor fit]"
6,CCOC(=O)N1CCN(c2cc(=O)n(-c3ccc(OC)cc3)c(=O)[nH]2)CC1,"inconclusive: 8.91 µM [inhibitor, full curve]"
7,O=C(O)c1cccc(NC(=O)c2cc3cc(Br)cc(Br)c3oc2=O)c1,"inconclusive: 89.1 µM [inhibitor, partial curve, poor fit]"
8,COc1ccc(-c2[nH]nc3oc(=O)cc(C)c23)cc1,"inconclusive: 7.94 µM [inhibitor, single point]"
9,COc1cccc(NC(=O)Nc2ccncc2)c1,inactive
10,CCOc1ccc2nc(Cl)c(/C=C/C(=O)c3ccco3)cc2c1,"inconclusive: 22.4 µM [inhibitor, full curve]"
11,Cc1ccccc1NC(=O)c1c(C)[nH]c(=S)c(C#N)c1-c1ccco1,"inconclusive: 39.8 µM [inhibitor, partial curve, poor fit]"
12,CCCCN1C=CC(=C2N=c3cccc([N+](=O)[O-])c3=N2)C=C1,"inconclusive: 89.1 µM [inhibitor, partial curve, poor fit]"
13,CCN1C(=O)/C(=C/c2c(C)nn(C)c2C)SC1=S,"inconclusive: 8.91 µM [inhibitor, single point]"
14,Brc1ccc(Nc2c3c(nc4nncn24)CCC3)cc1,active: 22.4 µM
15,O=C(COC(=O)c1nc(Cl)ccc1Cl)Nc1ccc2c(c1)OCO2,inactive
16,S=C(NCc1cccs1)Nc1cccc(Cl)c1,"inconclusive: 1.41 µM [inhibitor, full curve]"
17,CN(CC1CCOCC1)C(=O)CC1C(=O)NCCN1Cc1cccc(C(F)(F)F)c1 (stereo not given),"inconclusive: 56.2 µM [inhibitor, partial curve, poor fit]"
18,COc1ccc(C(O)(CCN2CCCCC2)C2CCCCC2)cc1 (stereo not given),active: 2.82 µM
19,Cc1ncc(CO)c2c1Oc1nc(-c3ccccc3)nc(SCC(=O)N3CCOCC3)c1C2,"inconclusive: 28.2 µM [inhibitor, full curve]"
20,CCOC(=O)c1ccccc1NC1c2ccccc2C(=O)N1C1CCN(C(=O)OCC)CC1 (stereo not given),inactive
21,CCOC(=O)C1=C(CCl)NC(=O)NC1c1ccc2c(c1)OCO2 (stereo not given),active: 11.2 µM
22,COc1ccc(NC(=S)NC2CCN(Cc3ccccc3)CC2)cc1OC,"inconclusive: 44.7 µM [inhibitor, partial curve, poor fit]"

# Source: PubChem BioAssay AID588453 (National Center for Advancing Translational Sciences (NCATS), 2011)
